Test results as given in the supplement of paper PMC10126150.
Sequences with one replicate were seen in a single cluster, so their values are uncertain.

Test system: ATP
Assay: switch fluorescence ratio, 500 uM ATP over buffer (Cy3 cluster intensity, sum of 5 cycles each) (fold (ratio)); higher = stronger signal-on switching upon ATP binding; sequences stand for … in TCGTCGGCAGCGTCAGATGTGTATAAGAGACAGTTTTTTTTTTTTTTTTTTTTTTTTT…TC
Details: aptamer strand: ATP DNA aptamer (quencher-CACCTGGGGGAGTATTGCGGAGGAAGG + anchor), 100 nM annealed; ATP concentration: 500 uM; one replicate
Summary of the method: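 Clusters with intensities outside 100-1000 RFU were excluded. The remaining Cy3-labelled switching-strand clusters on a modified Illumina MiSeq flow-cell had been annealed to 100 nM quencher-labelled ATP aptamer and imaged in selection buffer, then after 15 min with 500 uM ATP at 22 °C, for five cycles separated by NaOH stripping and re-annealing. The fluorescence ratio, averaged per switch-domain sequence, is each cluster's summed target-cycle Cy3 intensity over its summed buffer-cycle Cy3 intensity.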
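Note: ATP exposure 15 min at 22 °C before imaging.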

Row | Sequence | switch fluorescence ratio
1 | GGGGTCCTTG | 1.05
2 | GACATATTAC | 1.17
3 | ATCGGGTTCG | 1
4 | CCGGGTGGAC | 1.43
5 | ATTCCCTTTG | 1.08
6 | GGGAGCATTC | 1.34
7 | GATCGAGAGC | 0.943
8 | GGGTACTCTT | 0.967
9 | AAGGTACCTG | 0.985
10 | GTCAACAGTG | 1.04
11 | GAATGTTGAT | 1.03
12 | AAGATGAATG | 0.994
13 | GACCGATTAG | 1.04
14 | TGACTAGACC | 1.07
15 | GTATGCTTTG | 0.977
16 | CTATTCAATT | 0.984
17 | AGTCTTCGCC | 0.942
18 | CGCTTCCCAA | 1.54
19 | ATGGAAGTTG | 1.01
20 | AGTCGAGGTG | 1
21 | AGTGATTCAT | 0.994
22 | TAATTTTGCA | 0.984
23 | TTTCCTGGCA | 1.13

Row | Sequence | switch fluorescence ratio
24 | TGGACACACG | 1.1
25 | TGCATTTGAG | 1.01
26 | TATGGTTGAA | 0.933
27 | TCCAAGGACC | 1.03
28 | GTGGAATCTA | 1.02
29 | ATCTTAGGAG | 0.946
30 | AGAGGGGTAG | 1
31 | AGGATAATAT | 1.03
32 | GATGCTTGCC | 0.998
33 | CCAACGAAAT | 4.96
34 | CGGGTTGCAC | 0.984
35 | GTCAACAAAA | 0.995
36 | GACAGGGGGT | 1
37 | ACCAGGCTCC | 1.35
38 | GCATTTTCGC | 1.02
39 | GCGCCTTACC | 1.47
40 | CTTAGATAGG | 0.979
41 | GATTTTGAAT | 1.02
42 | AATTCGGTTG | 1
43 | GAATTGGCGC | 0.999
44 | GAGCTACTGG | 1.04
45 | CGGAAAGGTC | 1.01
46 | GCTCGTCGCG | 1.03

Row | Sequence | switch fluorescence ratio
47 | TGAAGGGAGC | 1.01
48 | TCAGTATTGT | 0.963
49 | CAGAAAGGAA | 1.03
50 | CTAAAAAATA | 0.997
51 | TTACTCTGG | 1.17
52 | AACGATCACC | 1.25
53 | TTCACAGTTT | 1.01
54 | TGCACCTGTG | 0.997
55 | AAAGGGATCG | 0.999
56 | AAACTTGCTA | 1.02
57 | CCGTGGCTTT | 0.973
58 | GTCATGTAGC | 0.984
59 | CAAACGTACA | 1.79
60 | ATCATGATTT | 0.964
61 | GGGGTCCACC | 0.968
62 | GAATGTCTCC | 1.02
63 | ATTCGATTCT | 1
64 | CGTTGGCAGA | 1.04
65 | CCGTTCACTC | 1.77
66 | AGCCTGGATT | 1.01
67 | GGCCCATCAA | 1.03
68 | GATGATCGAG | 1.03
69 | GGGGGTCTAC | 1.01

Row | Sequence | switch fluorescence ratio
70 | ATGAAGGTGT | 1.18
71 | CACATGGCGG | 0.967
72 | GCTGGAAAGA | 0.977
73 | TGAAGATAAT | 0.968
74 | TCTGAGGTC | 1.01
75 | TATGGAACAG | 1.01
76 | CGGCGTCAG | 0.996
77 | GGAAGGGCTC | 1.01
78 | CGGCGCTACG | 1.1
79 | TCTGTTCTTT | 1.05
80 | CCTATCACTG | 1.02
81 | AGAACCGGAA | 1.19
82 | AGGGAACGC | 1
83 | ACAAACCTAG | 1.15
84 | TATGGAAATT | 1.02
85 | CAAAATGTAA | 0.975
86 | TTTATTCGCC | 0.977
87 | ATTTTTCG | 1.03
88 | GGGCGGTAAA | 0.96
89 | TAGATGACTG | 0.903
90 | ACGTGCGCGC | 0.998
91 | GTGTCATATT | 0.981
92 | AAGTTGTGG | 1

Row | Sequence | switch fluorescence ratio
93 | AGTGTCTGAA | 0.979
94 | TACAGGGGCG | 1.06
95 | AGCATTGTGC | 0.983
96 | GCATAGTTAG | 1.01
97 | GAGTGACTC | 1.05
98 | TGCTATGGG | 1.05
99 | CAATTGTACC | 1.08
100 | ATCTGCAACG | 1.03
101 | CTACGAAGAT | 1.06
102 | CCTCATAGGG | 1.07
103 | TATCGGCGGA | 1.01
104 | CTCGGGAGCG | 1.01
105 | AGTATCTTTG | 0.982
106 | ATTTTACTAC | 1.05
107 | GCCAATTATC | 1.03
108 | TTCGTGCGTT | 1.04
109 | TTGAAGACAG | 0.981
110 | CTACGGAAGA | 2.25
111 | TTAGCACTGT | 1.08
112 | CGCGTCTTCC | 1.07
113 | GCCTCAGAAA | 1
114 | CGATCGGGCT | 0.991
115 | TGGCTCATGC | 0.934

Row | Sequence | switch fluorescence ratio
116 | CTTCAAGCCC | 1.05
117 | GAGAAAAGTC | 1
118 | TTATAGCTGA | 1.04
119 | AGATCTGAGA | 1.07
120 | GCGTGAGACT | 1.02
121 | GCTGAAATGG | 0.993
122 | CGAGCAATTT | 3.06
123 | CTGTGCCCGA | 1.05
124 | TCCGTTGGTC | 1.09
125 | TACCGATTAA | 0.995
126 | CTGGGCGAGC | 1.01
127 | GGGTCCACGC | 1.05
128 | TGGAATTAAG | 0.989
129 | TCTATTCCCC | 0.965
130 | GTCCGAGCGT | 1.23
131 | ATAATGGCT | 1.03
132 | CGTTAGGCGA | 0.994
133 | TTGGCGTTG | 0.986
134 | CTTGCGTCCT | 1.03
135 | CCCACGCTCA | 2.8
136 | ATGGGCTAAC | 1.03
137 | ACAATGCAAG | 0.975
138 | GAAGAAATTG | 1.01

Row | Sequence | switch fluorescence ratio
139 | CTCTTTATTA | 1
140 | ACAGCGGCGT | 1.02
141 | ACCCCACTAT | 1.25
142 | ACGTGGGTGG | 1.1
143 | CATCCGGATG | 1.01
144 | CAAATTTAGC | 1.03
145 | GGGTGTCGCG | 1
146 | CTGGCCCCGA | 1.01
147 | TCAGAATTT | 1.02
148 | TGTCTCTGAC | 1.02
149 | ATTGTAATGC | 1.28
150 | CGTGCGGGCC | 1.05
151 | TATGTGTTGT | 0.985
152 | CATAGTGTCA | 0.97
153 | ACCCAAAGA | 1.08
154 | CGTGGGGTTA | 0.952
155 | GTTCGAAGAA | 0.998
156 | CGTGAGTAGA | 0.984
157 | TCGGAGTCAT | 1.37
